This is an account of results in PubChem BioAssay (NCI).

Molecules are shown by their SMILES. Where “and” joins values, the source holds several entries; their conditions need not be identical. Equal entries are not always repeated.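 Method: 48-hour compound exposure of cells in 96-well plates, five concentrations, linear interpolation of endpoints. At the GI50, growth is halved. Definition used: TGI = concentration required for complete inhibition of growth.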

The assay has as its system NCI-H322M lung. In words: NCI tumour cell line growth inhibition, 48 h.

As to `O=S(=O)(Nc1ccc(I)c(Cl)c1)c1ccc(-c2cnc(C3CC3)o2)cc1`, the GI50 was 5.6 µM and the TGI came to 19.2 µM.
Consider `CN1C(=O)[C@]23SSC1(C)C(=O)N2[C@H]1Nc2ccccc2C1([C@@]12c4ccccc4N[C@@H]1N1C(=O)C4(C)SS[C@]1(C(=O)N4C)[C@H]2O)[C@@H]3O` (some centres undefined), for which the GI50 is 0.323 µM and 1.34 µM; the TGI was 0.878 µM and 3.4 µM.
